Several values for one entry are separate records, joined by “and”; a condition that tells them apart may be missing. Equal entries are not always repeated. Among all 220,000 compounds or so, about 5,700 (2.6%) were called active. Inconclusive results, whose numbers are uncertain, are shown with a selection of clear calls. Calls follow the shape of the dose curve; as a rule, active = well fitted inhibition curve with a large enough effect; inconclusive = small, poorly fitted or top-dose-only effect; inactive = no such curve, though single readings can be large or run the other way. Where the call is inconclusive, the potency comes from a doubtful curve fit.
Biological target: Lysine-specific demethylase 5B (Homo sapiens) (UniProt Q9UGL1)
Experiment: Primary screen for KDM5B Histone Demethylases FDH-coupled qHTS; also: nearly all actives have a fitted effect of over 70% in size; as to activity change, negative = inhibition: 0% is about no effect
Settings: FDH-coupled NADH fluorescence (FDH is formaldehyde dehydrogenase); activity change, negative = inhibition: at 57.7 µM (top of the series) unless noted
Outline: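 Here, H3K4me3 peptide (12.5 µM in substrate mix) is demethylated by KDM5BΔAP, 200 nM final, after 10 min compound exposure. Formaldehyde product is coupled through FDH (0.25 U/mL in mix) to NADH fluorescence; 30-min ΔRFU feeds dose-response curves.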
Potency is read from the fitted curve at half-maximal effect; tags tell the direction and shape of the fitted curve.

Chain of UniProt Q9UGL1 (Q9UGL1 whole entry, looked up): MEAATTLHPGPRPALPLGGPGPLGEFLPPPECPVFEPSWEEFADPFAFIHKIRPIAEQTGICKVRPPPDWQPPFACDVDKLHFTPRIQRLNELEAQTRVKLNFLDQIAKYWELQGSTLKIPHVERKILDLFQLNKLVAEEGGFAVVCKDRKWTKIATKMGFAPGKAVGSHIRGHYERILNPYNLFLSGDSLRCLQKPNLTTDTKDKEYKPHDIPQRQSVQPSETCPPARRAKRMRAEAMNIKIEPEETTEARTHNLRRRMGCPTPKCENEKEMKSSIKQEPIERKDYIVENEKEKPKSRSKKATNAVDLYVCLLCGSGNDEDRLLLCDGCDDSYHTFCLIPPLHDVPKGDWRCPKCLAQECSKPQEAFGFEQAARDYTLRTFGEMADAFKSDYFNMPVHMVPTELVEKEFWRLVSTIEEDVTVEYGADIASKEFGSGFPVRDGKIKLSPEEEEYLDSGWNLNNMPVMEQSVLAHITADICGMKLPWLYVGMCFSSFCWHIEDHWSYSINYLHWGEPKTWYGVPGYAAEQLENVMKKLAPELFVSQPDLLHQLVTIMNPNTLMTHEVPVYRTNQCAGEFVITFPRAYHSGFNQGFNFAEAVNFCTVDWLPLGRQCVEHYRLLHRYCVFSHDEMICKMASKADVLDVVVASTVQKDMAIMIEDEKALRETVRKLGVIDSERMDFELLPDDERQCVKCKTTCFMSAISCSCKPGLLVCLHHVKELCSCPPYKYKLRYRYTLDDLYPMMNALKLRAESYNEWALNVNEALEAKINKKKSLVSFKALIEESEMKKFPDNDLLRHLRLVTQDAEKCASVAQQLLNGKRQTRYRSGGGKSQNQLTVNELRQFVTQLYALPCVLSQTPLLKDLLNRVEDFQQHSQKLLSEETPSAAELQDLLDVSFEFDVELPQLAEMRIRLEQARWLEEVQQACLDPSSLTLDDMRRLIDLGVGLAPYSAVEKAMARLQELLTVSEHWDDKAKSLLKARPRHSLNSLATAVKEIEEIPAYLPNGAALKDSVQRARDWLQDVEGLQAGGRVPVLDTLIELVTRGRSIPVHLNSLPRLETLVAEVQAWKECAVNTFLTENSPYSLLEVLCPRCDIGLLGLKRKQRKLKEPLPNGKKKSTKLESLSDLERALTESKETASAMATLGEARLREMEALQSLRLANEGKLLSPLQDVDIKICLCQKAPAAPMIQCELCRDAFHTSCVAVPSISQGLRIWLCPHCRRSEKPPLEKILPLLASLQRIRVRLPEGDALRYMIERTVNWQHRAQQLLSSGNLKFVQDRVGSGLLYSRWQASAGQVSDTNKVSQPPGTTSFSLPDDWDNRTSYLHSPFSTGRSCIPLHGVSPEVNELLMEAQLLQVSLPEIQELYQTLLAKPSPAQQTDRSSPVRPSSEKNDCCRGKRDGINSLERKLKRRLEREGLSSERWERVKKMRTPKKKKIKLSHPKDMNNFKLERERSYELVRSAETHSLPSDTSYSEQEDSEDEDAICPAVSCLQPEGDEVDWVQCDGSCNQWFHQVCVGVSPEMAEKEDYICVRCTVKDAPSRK

SMILES	Potency	activity change, negative = inhibition
Cn1c(=O)c2c(SCC(=O)NCc3ccco3)nc(-c3ccccc3)nc2n(C)c1=O	inconclusive: 25.1 µM [inhibitor, single point]	
COCCN1C(=O)c2ccccc2C(C(=O)N2CCN(c3ccccc3)CC2)C12CCCC2 (stereo unspecified)	inconclusive: 28.2 µM [inhibitor, partial curve, poor fit]	
COc1ccc2[nH]c(C(=O)N3CCn4nc(CO)cc4C3)c(C)c2c1	inconclusive: 17.8 µM [inhibitor, single point]	
N#CC1CCN(C(=O)C2CN(c3cccc(Cl)c3)C(=O)N2)CC1 (stereo unspecified)	inactive	
CC(=O)Nc1nc2ccccc2n1Cc1ccccc1Cl		inactive: -16.9%
COc1cc(CCC(=O)N(C)C2CCc3nn(CC4CC4)c(=O)n3CC2)on1 (stereo unspecified)		inactive: -26.4%
O=S(=O)(Cc1ccccc1F)N1CCC(c2noc(-c3cccnc3)n2)C1 (stereo unspecified)		inactive: -0.107%
O=c1cc(-c2ccccc2)n2c(SCc3ccccc3)nnc2[nH]1	inconclusive: 8.91 µM [inhibitor, partial curve, poor fit] and inconclusive: 1 µM [inhibitor, full curve, poor fit]	
Nc1nc(Nc2ccccc2F)sc1C(=O)c1ccc(Cl)cc1	inconclusive: 25.1 µM [inhibitor, single point]	
Cc1noc(-c2ccccc2OC2CCN(C(=O)c3cc(C)[nH]n3)C2)n1 (stereo unspecified)	inconclusive: 31.6 µM [inhibitor, partial curve, poor fit]	
CCN(CC)C(=O)c1cc2c(s1)CCC(C(=O)N1CCN(c3ccccn3)CC1)C2 (stereo unspecified)	active: 28.2 µM	
CN1CC(=O)N(C2CCCNCC2)Cc2c1ncnc2N1CCSCC1 (stereo unspecified)	inconclusive: 56.2 µM [inhibitor, partial curve, poor fit]	
c1ccc(Nc2cc3c(cn2)NCCN(Cc2ccccn2)C3)cc1	active: 35.5 µM	
Cc1c(C(=O)OC(C)C#N)oc2c1ccc1ccccc12 (stereo unspecified)	inconclusive: 28.2 µM [inhibitor, partial curve, poor fit]	
COc1cc(C2NC(=O)N(C)C(C)=C2C(=O)OC2CCCC2)cc(Br)c1O (stereo unspecified)	inconclusive: 31.6 µM [inhibitor, partial curve, poor fit]	
Cc1cc(=O)oc(C)c1C(=O)Nc1ccc(OC(F)(F)F)cc1	inconclusive: 28.2 µM [inhibitor, partial curve, poor fit]	
Cc1ccc(Oc2nc(-c3ccncc3)nc3ccccc23)cc1		inactive: 7.46%
COc1ccc2c(c1)OCC(C(=O)N1CCCN(c3ncccn3)CC1)C2 (stereo unspecified)	active: 25.1 µM	
CCN1C(=O)C2CC3(CCN(C(=O)Cc4ccccc4)CC3)CN2C1=O (stereo unspecified)	inconclusive: 2.82 µM [inhibitor, full curve, poor fit]	
Cc1c(Cl)cccc1-c1ccc(C(=O)Nc2ccc(F)cc2)o1	inconclusive: 22.4 µM [inhibitor, partial curve, poor fit]	
COC[C@@H]1CN(c2ncccn2)C[C@H]1C(=O)Nc1ccc(OC)nc1	active: 25.1 µM	
COCCN1CCCCCC(O)c2cc(C(=O)NCc3ccc(N4CCC(C)CC4)cc3)ccc21 (stereo unspecified)	inconclusive: 25.1 µM [inhibitor, partial curve, poor fit]	

SMILES	Potency	activity change, negative = inhibition
CC(C)CNC(=O)c1cc(C2CC2)nc2onc(C3CCNC3)c12 (stereo unspecified)	active: 100 µM	
COCCN1CC(CO)C2(CCN(C(=O)Cc3ccccc3)CC2)C1 (stereo unspecified)	inconclusive: 14.1 µM [inhibitor, partial curve]	
O=C(O)CCCC(=O)N1CCN2C(=O)c3cc(Br)ccc3NC(=O)[C@@H]2C1		inactive: -19.9% [at 86.2 µM]
CCc1noc(-c2cn(C3CCN(C(=O)c4cccc5[nH]ccc45)CC3)nn2)n1	active: 31.6 µM	
COc1cccc(CN2Cc3nc(N4CCN(C)CC4)ccc3OCC2=O)c1	inconclusive: 35.5 µM [inhibitor, single point]	
COc1ccc(NCCN2CCCC2)cc1	inconclusive: 39.8 µM [inhibitor, partial curve, poor fit]	
Cc1noc(C)c1NC(=O)N1CCN(Cc2ccccc2)CC1		inactive: 31.3%
Cc1c(-c2ccc(Br)cc2)c(=O)oc2ccc(OC(=O)N3CCOCC3)cc12	inconclusive: 25.1 µM [inhibitor, partial curve, poor fit]	
COc1ccc(OC)c(-c2nnc3n(Cc4ccc(C)cc4)c(=O)c4ccccc4n23)c1	inconclusive: 25.1 µM [inhibitor, partial curve, poor fit]	
COc1ccc(C(=O)N2CCCn3cc(-c4ccccc4F)nc32)cn1		inactive: -30.8%
C=CCOC(=O)C1=C(C)N=C2SC=C(CC(=O)NCC3CC3)N2C1c1ccc(OC)c(OC)c1 (stereo unspecified)	inconclusive: 25.1 µM [inhibitor, single point]	
COc1ccc2nc([C@H]3CCN(Cc4ccccc4F)C3)[nH]c2c1	inconclusive: 28.2 µM [inhibitor, partial curve, poor fit]	
Cc1c(Cl)cccc1NC(=O)Cn1c(CCC(=O)O)ccc1-c1cccs1	inconclusive: 25.1 µM [inhibitor, partial curve, poor fit]	
CNCCN1C(=O)CC[C@H]2CN(C(=O)COc3cccnc3)CC[C@H]21		inactive: 5.12%
CS(=O)(=O)NCCc1ccc(C(=O)COc2ccc(-c3ccccc3)cc2Cl)s1		inactive: -13.5%
CC/C=C(/C)C(=O)NCCc1cccs1		inactive: 17.3%
Cn1cnc2cc(-c3ccc(F)cc3)cc(C(=O)NCc3cccnc3)c21	active: 31.6 µM	
O=C(Cc1cccs1)NCC12CC3CC(CC(C3)C1)C2		inactive: 10.8%
CC(C)c1nnc(NC(=O)C2CC(c3cccc(F)c3)=NO2)s1 (stereo unspecified)		inactive: -12.6%
Cc1ccc(-c2c(NC(=O)C3CC3)nc3ncccn23)cc1	inconclusive: 12.6 µM [inhibitor, partial curve, poor fit]	
O=C(NC1CCCCC1)[C@@H]1Cc2nc[nH]c2CN1Cc1ccc(C(F)(F)F)cc1		inactive: -23% [at 86.2 µM]
CNS(=O)(=O)c1cc(C(=O)NCc2ccc(-c3nc4ccccc4s3)o2)ccc1Cl	inconclusive: 25.1 µM [inhibitor, partial curve, poor fit]	

SMILES	Potency	activity change, negative = inhibition
CCOc1cc(/C=C(\C#N)C(=O)Nc2cccc(C(=O)O)c2)ccc1OCc1ccccc1Cl	inconclusive: 39.8 µM [inhibitor, single point]	
CCOc1ccc(CN2CCCC23Cc2ccccc2CNC3=O)cc1 (stereo unspecified)	inconclusive: 63.1 µM [inhibitor, partial curve, poor fit]	
Cc1ccc(NC(=O)Cn2nc(C)c3ccccc32)c(C)c1		inactive: 17.4%
CCOC(=O)c1cc2c(=O)n3ccccc3nc2n(CC(C)C)c1=NC(=O)c1c(-c2c(F)cccc2Cl)noc1C	inconclusive: 14.1 µM [inhibitor, partial curve, poor fit]	
Cc1cccc(CNC(=O)c2cc3n(n2)CC(c2ccc4c(c2)OCO4)OC3)c1 (stereo unspecified)	inconclusive: 15.8 µM [inhibitor, partial curve]	
Cc1cccc(C(=O)Nc2nnc(SCC(=O)NCc3ccco3)s2)c1	inconclusive: 39.8 µM [inhibitor, single point]	
O=C1c2ccccc2NC(c2cccc(Br)c2)N1CCCN1CCOCC1 (stereo unspecified)	inconclusive: 22.4 µM [inhibitor, partial curve, poor fit]	
Cc1cccc(C)c1-c1nc(C(=O)N2CCN(c3ncccn3)CC2)n2ccccc12	active: 31.6 µM and active: 28.2 µM	
Cc1cc(C)n(-c2nc3ccccc3nc2N2CCNCC2)n1	inconclusive: 22.4 µM [inhibitor, single point]	
CCCCN(CC)CCNC(=O)Cn1cc2c(n1)-c1c(oc(C(=O)N3CCCC3)c1C)CC2	inconclusive: 5.01 µM [inhibitor, partial curve, poor fit]	
CC1(c2noc(C3CC3)n2)CCN(C(=O)CCC(=O)N2CC(=O)Nc3ccccc32)CC1		inactive: -7.7%
COc1ccc(Cl)cc1NC(=O)CN1C(=O)COc2ccc(S(=O)(=O)NC3CCCC3)cc21	inconclusive: 15.8 µM [inhibitor, partial curve, poor fit]	
CCc1nnc(NC(=O)c2ccc(C)o2)s1	inconclusive: 22.4 µM [inhibitor, single point]	
Cc1ccc(CNC(=O)c2ccc3c(c2)N(C)C2CCCN2C3=O)cc1 (stereo unspecified)	inconclusive: 25.1 µM [inhibitor, partial curve, poor fit]	
CCOC(=O)Cn1c(=O)c2c(nc3n2CCN3c2ccc(CC)cc2)n(C)c1=O	inconclusive: 35.5 µM [inhibitor, partial curve, poor fit]	
Cc1ccc(C)c(-n2nc(-c3c(C)nc4scc(CC(=O)NC5CCCCC5)n4c3=O)cc2C)c1	inconclusive: 31.6 µM [inhibitor, partial curve, poor fit]	
COc1ccc2cc(C(=O)NCC3CCC3)c(C)nc2c1	inconclusive: 25.1 µM [inhibitor, partial curve, poor fit]	
CN(CCCOc1ccccc1-c1ccccc1)CCCOc1ccccc1-c1ccccc1	inconclusive: 12.6 µM [inhibitor, partial curve, poor fit]	
O=C(Nc1ccc(-c2nnc3n2CCCC3)cc1)C1CCCC1		inactive: 2.81%
COc1cc(NS(=O)(=O)c2ccc3[nH]c4c(c3c2)CCCCCC4)cc(OC)c1	inconclusive: 44.7 µM [inhibitor, single point]	
Cc1ccc2c(c1)N=C(c1ccccc1)CC(C(Cl)Cl)=N2	inconclusive: 39.8 µM [inhibitor, single point]	
CN(Cc1ccccc1)C1CCN(Cc2ccccc2Cl)CC1	inconclusive: 10 µM [inhibitor, partial curve, poor fit]	
